SMILES strings stand for the structures. Where “and” joins values, the source holds several entries; their conditions need not be identical. Equal values may be shown once. Where a name gives a salt, the structure may show the parent alone. ± gives the standard deviation of the averaged measurements. The full ranking holds about 3,200 compounds; the median of “nuclei count (viability) relative to DMSO” is about 99, and the lowest 2% start at about 16. Some of the results follow.

This assay has as its system U2OS. Description: nuclei count (viability) relative to DMSO (% of DMSO); higher = more viable cells. The following applies: 10 µM; 24 h. The method, then: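 Primary image-based screen in U2OS cells: compounds at 10 uM for 24 h, then a 1 h o-propargyl-puromycin (OPP) pulse, click labelling, and high-throughput microscopy. Mean cytoplasmic OPP intensity and nuclei count were normalised to DMSO wells within each plate (DMSO = 100) and averaged over triplicate plates.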
Molecule `CN1CCN(CCCN2c3ccccc3Sc3ccc(S(=O)(=O)N(C)C)cc32)CC1` [Thioproperazine dimesylate] showed a nuclei count of 101.
Molecule `CN[C@@H](C)[C@H]1[C@H](O)C[C@@]2(C)[C@@H]3CC[C@H]4C(C)(C)[C@@H](NC)CC[C@@]45C[C@@]35CC[C@]12C` [Cyclovirobuxin D (Bebuxine)] displayed a nuclei count of 95.7.
Then `N#Cc1ccc(NCCNCC(=O)N2CCC[C@H]2C#N)nc1` [NVP DPP 728 dihydrochloride], with 91; and `CN(C)c1nc(N)c(C(=O)Nc2cccnc2)nc1Cl` [ACDPP hydrochloride], with 104.
The same measure for `COc1cc2c(cc1O)CC[C@@H]1[C@@H]2CC[C@]2(C)[C@@H](O)CC[C@@H]12` [2-Methoxyestradiol]: 34.7; for `COC(=O)C1=C(C)NC(C)=C(C(=O)OC)C1c1ccccc1[N+](=O)[O-]` [Nifedipine]: 92.5 ± 10; for `Cc1cc(NC(=O)C2=C(O)c3ccccc3S(=O)(=O)N2C)no1` [Isoxicam]: 101.
The same measure for `Cc1cc(C(C)(C)CC(C)(C)C)ccc1OCCOCC[N+](C)(C)Cc1ccccc1` [Methyl benzethonium chloride]: 71.2; for `C[C@H](CCC(=O)NCC(=O)O)[C@H]1CC[C@H]2[C@@H]3CC[C@@H]4C[C@H](O)CC[C@]4(C)[C@H]3C[C@H](O)[C@]12C` [Glycodeoxycholic acid]: 105; for `CN(C)CCCN1c2ccccc2CCc2ccc(Cl)cc21` [Clomipramine hydrochloride]: 102 ± 1.2.
Molecule `CO[C@@]1(NC(=O)C2SC(=C(C(N)=O)C(=O)O)S2)C(=O)N2C(C(=O)O)=C(CSc3nnnn3C)CS[C@@H]21` (some centres not stated) [Cefotetan] had a nuclei count of 102.
Then `CCN(CC)CCOC(=O)C1(c2ccc([N+](=O)[O-])cc2)CCCC1` [Nitrocaramiphen hydrochloride], with 97.7 ± 5.5; and `COc1cc(Br)c(S(=O)(=O)Nc2ccc(Cl)c(O[C@@H]3CCN(C)C3)c2)cc1OC`, with 95.4; and `Clc1ccccc1CN1CCc2sccc2C1` [Ticlopidine hydrochloride], with 102.
Then `Nc1ccc(O)c(C(=O)O)c1` [Mesalamine], with 103.
The molecule `COc1ccc([C@@H]2CNC(=O)C2)cc1OC1CCCC1` [(R)-(-)-Rolipram] had a nuclei count of 96.2.
The same measure for `NC(=O)c1ccc2nc(-c3ccc(Oc4ccc(Cl)cc4)cc3)[nH]c2c1`: 105.
The same measure for `CC(=O)NCC(=O)N1[C@@H]2CC[C@H]1c1ccc(Nc3ncc(C(F)(F)F)c(NC4CCC4)n3)cc12`: 16.4; for `Nc1ccc(S(=O)(=O)Nc2ncccn2)cc1` [Sulfadiazine]: 90.5.
Then `CC(C)[C@H](C(=O)Nc1ccc(C(=O)NO)cc1)c1ccccc1`, with 29.3.
As for `C#C[C@]1(OC(C)=O)CC[C@H]2[C@@H]3CCC4=C[C@@H](OC(C)=O)CC[C@@H]4[C@H]3CC[C@@]21C` [Ethynodiol diacetate], the nuclei count turned out to be 106.2 ± 0.54.
Molecule `CCOC(=O)C=Cc1ccc(O)c(OC)c1` [Ferulic acid ethylester] displayed a nuclei count of 100.
The same measure for `N[C@H]1CCN(O)C1=O`: 106; for `Nc1[nH]nc2nc3ccccc3nc12`: 98.5; for `C#C[C@]1(O)CC[C@H]2[C@@H]3CCC4=CC(=O)CC[C@@H]4[C@H]3CC[C@@]21C` [Norethindrone (Norethisterone)]: 99.7.
Then `C#C[C@]1(O)CC[C@H]2[C@@H]3CCC4=CC(=O)CC[C@@H]4[C@H]3CC[C@@]21C` [Norethindrone], with 98.3.
The same measure for `Cc1cc2c(cc1C1(c3ccc(C(=O)O)cn3)CC1)C(C)(C)CCC2(C)C`: 102; for `C=CCc1cc(OC)c(O)c(C(=O)NCCO)c1` [Alibendol]: 98.9; for `CO[C@@]1(NC(=O)C(C(=O)O)c2ccc(O)cc2)C(=O)N2C(C(=O)O)=C(CSc3nnnn3C)CO[C@@H]21` (some centres not stated) [Moxalactam disodium salt]: 124.
Turning to `O=C(NC[C@H](O)CN1CCc2ccccc2C1)c1ccnc(NC2CCC2)c1`, the nuclei count was 102.
Then `CN(CCc1ccc(Cl)c(Cl)c1)CC(O)COc1ccc(NS(C)(=O)=O)cc1` (configuration not stated), with 108 and 95.8; and `CO[C@H]1C[C@@H]2CC[C@@H](C)[C@@](O)(O2)C(=O)C(=O)N2CCCC[C@H]2C(=O)O[C@H]([C@H](C)C[C@@H]2CC[C@@H](O)[C@H](OC)C2)CC(=O)[C@H](C)/C=C(\C)[C@@H](O)[C@@H](OC)C(=O)[C@H](C)C[C@H](C)/C=C/C=C/C=C/1C` [Rapamycin], with 107.
`CO[C@H]1C[C@@H]2CC[C@@H](C)[C@@](O)(O2)C(=O)C(=O)N2CCCC[C@H]2C(=O)O[C@H]([C@H](C)C[C@@H]2CC[C@@H](O)[C@H](OC)C2)CC(=O)[C@H](C)/C=C(\C)[C@@H](O)[C@@H](OC)C(=O)[C@H](C)C[C@H](C)/C=C/C=C/C=C/1C` [Rapamycin (Sirolimus)] registered a nuclei count of 84.8 ± 10.
Then `Cc1cccc(CCN2CCC(C(=O)c3ccc(NS(C)(=O)=O)cc3)CC2)n1` [E-4031 dihydrochloride], with 94.5; and `N[C@@H]1CCCN(c2c(/C=C3\SC(=O)NC3=O)cccc2-c2ccccc2)C1`, with 93.5; and `Oc1ccc(Nc2nc(-c3ccc(Cl)cc3)cs2)cc1`, with 78.2 ± 0.81.
Molecule `N#Cc1ccc2[nH]c(O)c(-c3ccc(CN4CCOCC4)cn3)c2c1` showed a nuclei count of 82.8.
Then `COc1cc2ncnc(Nc3ccc(Cl)cc3F)c2cc1OC`, with 91.6 and 100.
Then `CCCCCCCCCCCCCCCC[N+](C)(C)CCN(Cc1ccc(OC)cc1)c1ncccn1` [Thonzonium bromide], with 12.1.
Then `O=C(O)P(=O)(O)O` [Foscarnet Sodium], with 102; and `CC(C)(C)NS(=O)(=O)c1cncc(-c2cc(F)c3nc(N)nn3c2)c1`, with 98.4; and `CCN(CC)CCCC(C)Nc1c2ccc(Cl)cc2nc2ccc(OC)cc12` (configuration not stated) [Quinacrine dihydrochloride dihydrate], with 12.9.
For the molecule `Cc1[nH]c(/C=C2\C(=O)Nc3ccccc32)c(C)c1CCC(=O)O`, the nuclei count was 102 and 105.
Then `CC(=O)N1CCN(c2ccc(OCC3COC(Cn4ccnc4)(c4ccc(Cl)cc4Cl)O3)cc2)CC1` (configuration not stated) [Ketoconazole], with 83 ± 3.4.
`CC1=C(C)C(=O)C(CCCCC#CCCCC#CCO)=C(C)C1=O`: the nuclei count turned out to be 86.4.
`CC(C)NCC(O)c1ccc(NS(C)(=O)=O)cc1` (configuration not stated) [Sotalol hydrochloride] gave a nuclei count of 108.9 ± 0.4.
The same measure for `C#C[C@]1(O)CC[C@H]2[C@@H]3CCc4cc(OC)ccc4[C@H]3CC[C@@]21C` [Ethynylestradiol 3-methyl ether]: 105.
Then `C#C[C@]1(O)CC[C@H]2[C@@H]3CCc4cc(OC)ccc4[C@H]3CC[C@@]21C` [Mestranol], with 97.9; and `C1=N/C2=N/c3ccc(OCCN4CCCC4)c(c3)COC/C=C/COCc3cccc(c3)C(=C1)N2` [Pacritinib (SB1518)], with 16.7.
Then `COc1cc(C=O)ccc1O` [Vanillin], with 102; and `COc1ccc2cccc(CCNC(C)=O)c2c1` [Agomelatine], with 97.2; and `CN(C)CCCCSC(=N)N`, with 103.
In the case of `CSc1cccc(Nc2ncc3cc(-c4c(Cl)cccc4Cl)c(=O)n(C)c3n2)c1`, the nuclei count turned out to be 72.2.
As to `OCc1ccc(-c2ccc(-c3ccc(CO)s3)o2)s1`, the nuclei count came out at 19.9.
The same measure for `O=c1c(-c2ccc(O)cc2)coc2cc(O)cc(O)c12` [Genistein]: 103 ± 6.6; for `CCOC(=O)Nc1ccc2c(c1)N(C(=O)CCN1CCOCC1)c1ccccc1S2` [Moricizine hydrochloride]: 108.
The same measure for `C[C@H](NC(=O)Cc1cc(F)cc(F)c1)C(=O)N[C@@H]1C(=O)N(C)c2ccccc2-c2ccccc21`: 101; for `Clc1cc2c(NC3CCCC3)nnc(-c3ccncc3)c2cc1Cl`: 94.1; for `O=C(O)c1ccc(Nc2ncc3c(n2)-c2ccc(Cl)cc2C(c2c(F)cccc2F)=NC3)cc1`: 51.5 ± 2.5.
Then `COc1cc2c(cc1OC)-c1cc3ccc(OC)c(OC)c3c[n+]1CC2` [Palmatine chloride], with 110; and `COC(=O)[C@H]1[C@H]2C[C@@H]3c4[nH]c5cc(OC)ccc5c4CCN3C[C@H]2C[C@@H](OC(=O)c2cc(OC)c(OC)c(OC)c2)[C@@H]1OC` [Reserpine], with 103 ± 4.7.
With `CNC(=C[N+](=O)[O-])NCCSCc1ccc(CN(C)C)o1` [Ranitidine hydrochloride], the nuclei count turned out to be 97.5 ± 7.8.
For `C=CCc1ccc(O)c(-c2ccc(O)c(CC=C)c2)c1` [Honokiol], the nuclei count was found to be 102.37 ± 0.042.
The same measure for `CC(C)C[C@H](NC(=O)[C@@H](O)[C@H](N)Cc1ccccc1)C(=O)O` [Bestatin]: 94.4; for `CN(C)CCCSc1ccccc1NC(=O)/C=C/c1ccccc1` [Cinanserin hydrochloride]: 110; for `N#C[C@@H]1CCCN1C(=O)CNC12CC3CC(CC(O)(C3)C1)C2` [Vildagliptin (LAF-237)]: 98.5.
In turn, `CC(C)C[C@H](NC(=O)CNC(=O)c1cc(Cl)ccc1Cl)B(O)O` registered a nuclei count of 9.55.
Then `O=C(O[C@@H]1Cc2c(O)cc(O)cc2O[C@@H]1c1cc(O)c(O)c(O)c1)c1cc(O)c(O)c(O)c1` [Epigallocatechin gallate], with 103 ± 10; and `OC1CCC(Nc2nc(-c3ccccc3)nc3[nH]ccc23)CC1` (configuration not stated), with 92.3.
The same measure for `CC(=O)NNC(=O)N1Cc2ccccc2Oc2ccc(Cl)cc21`: 94.3.
Then `N[C@@H]1CN(c2c(F)cc3c(=O)c(C(=O)O)cn([C@@H]4C[C@@H]4F)c3c2Cl)CC12CC2` [Sitafloxacin hydrate], with 107; and `CNC[C@H](O)c1cccc(O)c1` [Phenylephrine HCl], with 96.1.
`CCn1cc(-c2ccnc3[nH]c(-c4cccc(CN(C)C)c4)cc23)c(-c2ccc(NC(=O)N(C)C)cc2)n1` had a nuclei count of 30.
Then `CCOc1ccn(-c2ccc(F)cc2)c(=O)c1C(=O)Nc1ccc(Oc2ccnc(N)c2Cl)c(F)c1`, with 67.3; and `Cc1nc(Nc2n[nH]c3c2CN(C(=O)N[C@H](CN(C)C)c2ccccc2)C3(C)C)c2sccc2n1`, with 38; and `[Cl-].[Li+]` [Lithium Chloride], with 102.
Then `CCCCCCN(CCCCCC)C(=O)Cc1c(-c2ccc(F)cc2)[nH]c2ccccc12`, with 101.
